In publication PMC5882150:
Where two headings read alike, the source gives them in different places. Results are given in words; binding and its absence hold for the method and conditions named. In cells and extracts the contact can be indirect. Some results given as binding are weak or reduced against the parent protein; the word gives no strength.

Sequences of proteins named here, by UniProt entry; tags and fusion partners are left off. Residues count along the entry.
UniProt O95832: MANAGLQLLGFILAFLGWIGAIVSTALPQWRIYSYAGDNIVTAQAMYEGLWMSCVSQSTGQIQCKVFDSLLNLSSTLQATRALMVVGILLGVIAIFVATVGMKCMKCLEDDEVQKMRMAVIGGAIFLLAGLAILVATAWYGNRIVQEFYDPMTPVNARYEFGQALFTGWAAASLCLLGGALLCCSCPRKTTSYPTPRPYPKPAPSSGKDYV
UniProt P09758, residues 27-323: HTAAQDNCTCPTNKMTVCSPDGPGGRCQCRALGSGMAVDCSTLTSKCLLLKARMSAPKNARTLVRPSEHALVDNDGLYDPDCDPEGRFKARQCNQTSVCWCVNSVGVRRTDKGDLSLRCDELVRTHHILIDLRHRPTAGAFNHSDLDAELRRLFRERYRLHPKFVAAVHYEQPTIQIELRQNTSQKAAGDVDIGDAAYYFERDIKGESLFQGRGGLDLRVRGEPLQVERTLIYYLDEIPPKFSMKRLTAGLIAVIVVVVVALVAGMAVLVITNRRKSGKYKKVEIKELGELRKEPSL

T1: occludin (OCLN) (human (endogenous in Huh7.5)) (UniProt Q16625)
T1 sequence: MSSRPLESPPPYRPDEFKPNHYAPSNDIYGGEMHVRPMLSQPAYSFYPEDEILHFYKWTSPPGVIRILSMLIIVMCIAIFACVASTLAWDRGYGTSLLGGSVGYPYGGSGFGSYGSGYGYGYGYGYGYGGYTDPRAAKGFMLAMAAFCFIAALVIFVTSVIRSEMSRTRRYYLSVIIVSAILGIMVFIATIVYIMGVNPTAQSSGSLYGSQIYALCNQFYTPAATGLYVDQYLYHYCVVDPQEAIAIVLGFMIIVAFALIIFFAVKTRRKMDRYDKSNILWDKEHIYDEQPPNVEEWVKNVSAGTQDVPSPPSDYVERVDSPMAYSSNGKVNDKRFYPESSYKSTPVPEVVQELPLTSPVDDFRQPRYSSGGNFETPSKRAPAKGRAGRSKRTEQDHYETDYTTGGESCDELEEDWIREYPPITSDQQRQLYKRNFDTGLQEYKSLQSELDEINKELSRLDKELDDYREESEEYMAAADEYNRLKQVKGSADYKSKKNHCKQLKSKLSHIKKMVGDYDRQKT


Tests used:
[1] = target: T1, occludin (OCLN) (human (endogenous in Huh7.5)); experiment: co-IP; reciprocal: lysates of parental and TACSTD2-overexpressing Huh7.5 cells immunoprecipitated with anti-OCLN antibody or control IgG at 4°C overnight, protein-G sepharose, eluates deglycosylated; total TACSTD2 detected with biotinylated anti-TACSTD2, phosphorylated TACSTD2 with anti-PKC substrate-specific antibody
[2] = target: claudin-1 (CLDN1) (human (endogenous in Huh7.5)) (UniProt O95832); experiment: co-IP; reciprocal: lysates of parental and TACSTD2-overexpressing Huh7.5 cells immunoprecipitated with anti-CLDN1 antibody or control IgG at 4°C overnight, protein-G sepharose, eluates deglycosylated; total TACSTD2 detected with biotinylated anti-TACSTD2, phosphorylated TACSTD2 with anti-PKC substrate-specific antibody
[3] = target: tumor-associated calcium signal transducer 2 (TACSTD2), endogenous in parental Huh7.5 cells (human (endogenous in Huh7.5)) (UniProt P09758); experiment: co-IP; lysates of parental and TACSTD2-overexpressing Huh7.5 cells (Pierce IP lysis buffer: 25 mM Tris-HCl pH 7.4, 150 mM NaCl, 1% NP-40, 1 mM EDTA, 5% glycerol; protease inhibitor, PhosSTOP) immunoprecipitated with anti-TACSTD2 antibody or control IgG at 4°C overnight, protein-G sepharose, five washes, eluates deglycosylated, immunoblot
[4] = target: tumor-associated calcium signal transducer 2 (TACSTD2), in Huh7.5 cells stably overexpressing TACSTD2 (UniProt P09758); experiment: as above
[5] = target: tumor-associated calcium signal transducer 2 (TACSTD2), endogenous in parental Huh7.5 cells (human (endogenous in Huh7.5)) (UniProt P09758); experiment: as above; remark: listed apart in the source
[6] = target: tumor-associated calcium signal transducer 2 (TACSTD2), in Huh7.5 cells stably overexpressing TACSTD2 (UniProt P09758); experiment: as above; remark: listed apart in the source

Row | Molecule | binding [1] | binding [2] | binding [5] | binding [6] | further results
1 | tumor-associated calcium signal transducer 2 (TACSTD2), endogenous in parental Huh7.5 cells (from UniProt P09758 27-323) | binds | binds | – | – | –
2 | claudin-1 (CLDN1) (from UniProt O95832 1-211) | – | – | – | – | binding [3]: binds; binding [4]: binds
3 | occludin (OCLN) (protein, UniProt Q16625 1-522) MSSRPLESPPPYRPDEFKPNHYAPSNDIYGGEMHVRPMLSQPAYSFYPEDEILHFYKWTSPPGVIRILSMLIIVMCIAIFACVASTLAWDRGYGTSLLGGSVGYPYGGSGFGSYGSGYGYGYGYGYGYGGYTDPRAAKGFMLAMAAFCFIAALVIFVTSVIRSEMSRTRRYYLSVIIVSAILGIMVFIATIVYIMGVNPTAQSSGSLYGSQIYALCNQFYTPAATGLYVDQYLYHYCVVDPQEAIAIVLGFMIIVAFALIIFFAVKTRRKMDRYDKSNILWDKEHIYDEQPPNVEEWVKNVSAGTQDVPSPPSDYVERVDSPMAYSSNGKVNDKRFYPESSYKSTPVPEVVQELPLTSPVDDFRQPRYSSGGNFETPSKRAPAKGRAGRSKRTEQDHYETDYTTGGESCDELEEDWIREYPPITSDQQRQLYKRNFDTGLQEYKSLQSELDEINKELSRLDKELDDYREESEEYMAAADEYNRLKQVKGSADYKSKKNHCKQLKSKLSHIKKMVGDYDRQKT | – | – | binds | binds | –

Now from value to molecule, other results behind:

Row | binding [1] | binding [2] | binding [5] | binding [6] | Molecule | further results
4 | binds | binds | – | – | tumor-associated calcium signal transducer 2 (TACSTD2), in Huh7.5 cells stably overexpressing TACSTD2 (from UniProt P09758 27-323) | –
5 | – | – | no binding | no binding | retinoblastoma protein (protein, UniProt P06400 1-928) MPPKTPRKTAATAAAAAAEPPAPPPPPPPEEDPEQDSGPEDLPLVRLEFEETEEPDFTALCQKLKIPDHVRERAWLTWEKVSSVDGVLGGYIQKKKELWGICIFIAAVDLDEMSFTFTELQKNIEISVHKFFNLLKEIDTSTKVDNAMSRLLKKYDVLFALFSKLERTCELIYLTQPSSSISTEINSALVLKVSWITFLLAKGEVLQMEDDLVISFQLMLCVLDYFIKLSPPMLLKEPYKTAVIPINGSPRTPRRGQNRSARIAKQLENDTRIIEVLCKEHECNIDEVKNVYFKNFIPFMNSLGLVTSNGLPEVENLSKRYEEIYLKNKDLDARLFLDHDKTLQTDSIDSFETQRTPRKSNLDEEVNVIPPHTPVRTVMNTIQQLMMILNSASDQPSENLISYFNNCTVNPKESILKRVKDIGYIFKEKFAKAVGQGCVEIGSQRYKLGVRLYYRVMESMLKSEEERLSIQNFSKLLNDNIFHMSLLACALEVVMATYSRSTSQNLDSGTDLSFPWILNVLNLKAFDFYKVIESFIKAEGNLTREMIKHLERCEHRIMESLAWLSDSPLFDLIKQSKDREGPTDHLESACPLNLPLQNNHTAADMYLSPVRSPKKKGSTTRVNSTANAETQATSAFQTQKPLKSTSLSLFYKKVYRLAYLRLNTLCERLLSEHPELEHIIWTLFQHTLQNEYELMRDRHLDQIMMCSMYGICKVKNIDLKFKIIVTAYKDLPHAVQETFKRVLIKEEEYDSIIVFYNSVFMQRLKTNILQYASTRPPTLSPIPHIPRSPYKFPSSPLRIPGGNIYISPLKSPYKISEGLPTPTKMTPRSRILVSIGESFGTSEKFQKINQMVCNSDRVLKRSAEGSNPPKPLKKLRFDIEGSDEADGSKHLPGESKFQQKLAEMTSTRTRMQKQKMNDSMDTSNKEEK | –
